# Source: the supplement of paper PMC3334620
# In all, about 33,000 sequences were measured (“E-score (-0.5 to 0.5)”: median about -0.016, highest 2% from about 0.31 on). The list shows a part of the results.
# Target: Cst6 (UniProt P40535)
# Experiment: PBM E-score (8-mer binding enrichment) (E-score (-0.5 to 0.5)); higher = stronger / more preferred TF binding; most listed sequences are background and not binding sites
# Details: protein concentration: 200 nM; construct: GST-DNA-binding domain
# In short: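 E-scores (a modified Wilcoxon-Mann-Whitney statistic) were assigned by the Universal PBM Analysis Suite to every ungapped eight-base word pooled with its reverse complement. The input came from universal all-10-mer Agilent arrays made double-stranded by primer extension and probed with GST-tagged yeast transcription factors at about 100-200 nM. Fluorescent anti-GST detected bound protein, and masliner normalised the scans.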
row,Sequence,PBM E-score
1,GTGTTACA,0.0865
2,GACGACAA,0.256
3,AAACGCTA,-0.161
4,AGGCGATA,-0.157
5,TGACTGCA,0.0188
6,CTGGAGAC,-0.159
7,AAAGGACG,-0.146
8,AAAAATTG,0.2
9,TGGCATAA,0.265
10,CGACATAG,-0.0819
11,CGTACGCA,0.118
12,TCCTGCAA,-0.028
13,GGGGCGAC,-0.156
14,AACCATTC,-0.0155
15,CAATGCCA,-0.0721
16,CGTTCTTA,0.0793
17,ACATCGCC,0.0342
18,CGCCATAC,0.0881
19,AGTTTTAT,0.181
20,CCGAAGTA,-0.0348
21,TAGAAGAA,-0.097
22,AATCAACT,0.161
23,CAAATAAC,0.37
24,CCCACTAG,-0.341
25,GTGAGCTA,0.0541

row,Sequence,PBM E-score
1,CACATCGC,-0.0321
2,AAAACGTC,0.278
3,AAAGCCAC,0.0352
4,AGGCCCGC,-0.0131
5,GTCAAAAC,0.214
6,GATAGTAA,0.14
7,TATGTACA,0.119
8,CAAGACCG,-0.195
9,ACTGCCTC,-0.0372
10,CATGAGAC,-0.01
11,CTCTGAAG,-0.217
12,ATCATCCA,0.0994
13,TGGCCTAA,-0.0862
14,AACCGTCT,-0.18
15,TGCATCAA,0.154
16,ATATAAAG,0.17
17,GGCGCATA,0.0666
18,ATCTGTAG,-0.163
19,TACACGGA,0.179
20,GCCACAGC,-0.106
21,AACTCAAA,0.0489
22,AAGCGACG,-0.212
23,CAGGGCAC,0.00975
24,GCAGTACC,-0.0815
25,AGTAATAG,0.211

row,Sequence,PBM E-score
1,CGATGGCC,-0.162
2,CTCGACTA,-0.135
3,AGGGGCCA,-0.327
4,CGTAAGCC,0.159
5,GTAGGTGA,0.0559
6,TCAGATGA,0.249
7,GATCGCGA,0.00924
8,CTGTACAA,0.0163
9,TACGGAGA,-0.00509
10,TGACGAAA,0.477
11,CCGGTAAG,-0.0691
12,GCGCTCTA,-0.0714
13,TAACGCGA,-0.0127
14,GGTTTCGA,0.0179
15,ATGGGGAG,-0.269
16,TATCTAAA,0.0577
17,AAAAAGCC,0.211
18,AGATTGTA,0.193
19,AACTGTAT,0.0562
20,CCTCATAG,0.0666
21,CCAGGAAG,-0.092
22,GCTAGTAC,-0.217
23,TCATCGCA,0.107
24,AGAGGCAG,-0.148
25,AATAGTGA,0.241

row,Sequence,PBM E-score
1,AGGGAGTG,-0.139
2,AGCACGTG,0.13
3,ACTAGCCC,-0.0733
4,AATGCGTC,0.0833
5,CGGCTACC,-0.0393
6,CTGGCTCC,-0.322
7,AGAGCCTC,-0.115
8,GTTCCTTA,-0.0308
9,ACGGGAAG,-0.268
10,CAGAGTAA,0.0498
11,CAGAGATA,0.101
12,AGTTCGAT,-0.00384
13,AATGGGGG,-0.312
14,AAGAAAGC,0.0288
15,AACTCCGT,0.0842
16,ACAGCCAT,-0.0688
17,ACAACACA,0.206
18,CAACCGAA,0.0726
19,GCGGGTAC,-0.045
20,ACGGTAAG,-0.0599
21,AGAATGGC,-0.0246
22,AGGCAACT,0.143
23,TATCCTCA,0.0186
24,AAGGGACC,-0.176
25,AACGAAAT,0.156

row,Sequence,PBM E-score
1,AAAGCACA,0.143
2,GGTTACAA,0.145
3,AACGGGCG,-0.12
4,AATACATA,0.217
5,AACCTGCA,-0.119
6,AAACTAGC,-0.172
7,GGATAAAC,0.187
8,CCCCGTGA,-0.0686
9,CGCAGGTC,-0.269
10,GAGAATAA,0.149
11,AAGAAATC,0.0481
12,CATTAGAC,-0.113
13,GCTCATGA,0.0394
14,GAGGGGTA,-0.351
15,AGAGCGAA,-0.0706
16,AGCGAGTA,-0.117
17,CTGAGACC,-0.273
18,GATCTCAA,0.0948
19,ACTGGCAC,-0.149
20,AGTGCCAA,-0.216
21,GGATGGCC,-0.319
22,TATAAATA,0.294
23,GGGTTTAC,-0.00957
24,ATACCTAA,0.208
25,ATACGCCG,0.121

row,Sequence,PBM E-score
1,ATCCGTCG,-0.12
2,TAATCCCA,-0.059
3,GATTGGAC,-0.212
4,CGCCTCAG,0.00359
5,ATTTGATC,0.0671
6,AATACCCC,-0.274
7,CCTAGAAC,-0.121
8,CCTATCTA,-0.174
9,ATGGAATA,0.186
10,AAAACCAG,0.0727
11,CCACTAAA,-0.0731
12,ACAACGCA,0.0232
13,AGTTGGAG,-0.123
14,CTGGTCTC,-0.345
15,GAACTGAC,0.0195
16,GCAACCAC,-0.16
17,ACCCATTG,-0.105
18,ACGTTGCC,0.0607
19,ATATTGCG,0.138
20,ACTCATTA,0.0336
21,ACAGAGCA,0.0348
22,GTCCTCGA,-0.0345
23,AATATCTC,0.084
24,CAACGCGC,0.117
25,AGCAACAA,0.222

row,Sequence,PBM E-score
1,ACGGTGAT,0.121
2,GACACCAC,-0.0664
3,AGATAAAT,0.144
4,ACGGCAGC,0.207
5,CGTAGTGA,0.0691
6,ACATACTC,0.0717
7,AATGTAGC,-0.196
8,AGGTCGCA,-0.184
9,AGGAGGGA,-0.279
10,GTTTCAAA,0.025
11,CATCGTGG,-0.2
12,ACCGTGGG,-0.275
13,TGCAGTAA,0.00191
14,GTCCGGAA,-0.183
15,ACTAGGCA,-0.0799
16,ACAGAGAT,0.178
17,CACGCACG,0.00075
18,ATTGGGTG,0.169
19,ATTTTGCC,0.134
20,ATCACTAC,0.129
21,TGTCTTAA,0.0288
22,AGTTCGGA,-0.054
23,ATTTGCAA,0.124
24,GGAACGCC,-0.161
25,ACGGCCTG,-0.00375

row,Sequence,PBM E-score
1,CCACCTGA,-0.109
2,AACACCGC,-0.177
3,AAAATCAA,0.0708
4,ACTGCGTG,-0.092
5,GCAATCTA,0.0285
6,GCAGCTCA,-0.018
7,CAGCGATC,-0.0545
8,TGATAACA,0.247
9,GTCACTCA,0.315
10,CAGGCGGA,0.0302
11,TAAAGAGA,0.0905
12,GTCCAACA,-0.0765
13,CTTATGGC,-0.087
14,AAGACCGT,-0.21
15,GCGCCTCC,-0.00818
16,TAACTCCA,-0.195
17,CTAGCCGA,-0.215
18,AGTCCCGA,-0.259
19,CTCGCTGC,-0.105
20,GGGCTTTA,-0.303
21,CACTTGTC,-0.0855
22,ACGCTGAA,-0.027
23,AGCATCAA,0.178
24,ACGTCCGG,0.102
25,AGTTAGGC,-0.0709

row,Sequence,PBM E-score
1,AACGTCAT,0.489
2,CACGTTGA,0.0783
3,GGTTCGGA,-0.234
4,AGCAAACG,0.0384
5,ATGAGCGA,0.133
6,ATTTAACC,-0.0172
7,GTTTAGCA,0.0457
8,TCTACAGA,-0.0513
9,AAGCGAGA,-0.0271
10,ACCTCGGA,-0.0521
11,GCGGCACA,0.176
12,GACCCGGC,-0.204
13,CAAATGAC,0.248
14,AATAGCAC,-0.239
15,GCGTAGTA,0.0269
16,AACTCAAC,0.0159
17,GCCAGGCC,-0.334
18,GTCATCAA,0.385
19,ATGGGATG,-0.209
